Test results reported in publication PMC8132155.
These are yes or no findings as the source states them, for the method shown. In cells and extracts the contact can be indirect. Some entries that bind do so weakly or less than the wild type.

Chains of the proteins cited; added tags and fusions are not shown. Lines headed by an entry give the natural chain unless they say otherwise; changes in a name come on top.
UniProt O14744: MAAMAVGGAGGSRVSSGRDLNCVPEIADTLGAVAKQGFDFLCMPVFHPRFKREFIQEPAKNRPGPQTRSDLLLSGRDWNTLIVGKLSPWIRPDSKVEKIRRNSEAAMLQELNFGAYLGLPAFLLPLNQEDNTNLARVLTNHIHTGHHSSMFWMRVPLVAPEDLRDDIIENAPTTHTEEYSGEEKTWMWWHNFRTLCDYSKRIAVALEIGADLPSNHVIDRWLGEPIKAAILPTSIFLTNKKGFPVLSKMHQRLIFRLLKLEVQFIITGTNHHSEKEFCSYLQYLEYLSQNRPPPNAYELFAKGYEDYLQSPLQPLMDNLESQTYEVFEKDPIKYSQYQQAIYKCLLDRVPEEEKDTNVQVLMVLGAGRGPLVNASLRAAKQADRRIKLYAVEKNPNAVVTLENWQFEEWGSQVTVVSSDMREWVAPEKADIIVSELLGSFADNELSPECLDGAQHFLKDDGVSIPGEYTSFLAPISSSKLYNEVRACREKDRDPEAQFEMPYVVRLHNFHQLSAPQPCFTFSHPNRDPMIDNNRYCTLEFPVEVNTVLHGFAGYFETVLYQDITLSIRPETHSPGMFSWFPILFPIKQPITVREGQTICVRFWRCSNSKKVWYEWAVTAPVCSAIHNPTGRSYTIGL
UniProt O15105: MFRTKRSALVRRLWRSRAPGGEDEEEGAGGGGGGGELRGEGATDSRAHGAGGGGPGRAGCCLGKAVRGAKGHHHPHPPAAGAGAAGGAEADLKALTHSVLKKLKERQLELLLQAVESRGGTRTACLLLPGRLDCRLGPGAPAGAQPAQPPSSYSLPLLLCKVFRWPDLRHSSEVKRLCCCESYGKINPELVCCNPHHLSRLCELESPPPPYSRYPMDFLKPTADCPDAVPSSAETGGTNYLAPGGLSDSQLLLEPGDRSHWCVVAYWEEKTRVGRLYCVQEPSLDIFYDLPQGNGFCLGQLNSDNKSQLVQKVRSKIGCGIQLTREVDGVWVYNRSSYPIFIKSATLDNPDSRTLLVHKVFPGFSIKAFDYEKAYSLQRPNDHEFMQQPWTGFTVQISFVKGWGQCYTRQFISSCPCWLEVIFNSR
UniProt Q9BQA1: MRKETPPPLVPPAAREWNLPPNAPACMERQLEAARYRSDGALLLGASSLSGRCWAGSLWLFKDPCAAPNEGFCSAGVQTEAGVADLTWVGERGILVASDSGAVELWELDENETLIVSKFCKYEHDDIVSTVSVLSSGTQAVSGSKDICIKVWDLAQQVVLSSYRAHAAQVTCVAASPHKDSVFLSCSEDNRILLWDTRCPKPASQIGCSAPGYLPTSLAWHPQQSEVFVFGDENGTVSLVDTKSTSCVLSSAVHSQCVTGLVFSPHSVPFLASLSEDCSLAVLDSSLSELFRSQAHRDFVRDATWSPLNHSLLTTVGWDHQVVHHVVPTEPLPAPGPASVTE

Legend:
HA-PRMT5 [1] = molecular target: HA-PRMT5 (UniProt O14744); assay: co-IP; HEK293T cells transfected with HA-PRMT5 and FLAG-Smad7 without MYC-MEP50; lysate immunoprecipitated with HA antibody, Western blot
HA-PRMT5 [2] = molecular target: HA-PRMT5 (UniProt O14744); assay: co-IP; HEK293T cells transfected with HA-PRMT5, MYC-MEP50 and FLAG-Smad7 or a Smad7 domain; lysate immunoprecipitated with HA antibody, Western blot (Figures 2A, 2C)
GST-Smad7 = GST-Smad7 (UniProt O15105); assay: pull-down; GST or GST-Smad7 on glutathione-sepharose beads incubated with HEK293T cells expressing MYC-tagged PRMT5/MEP50; bound proteins by Western blot; only the target purified
[3] = molecular target: SFB-Smad7 (MCF10A tet-on cells) (UniProt O15105); assay: co-IP; MCF10A-tet-on cells, SFB-Smad7 induced with or without 500 ng/mL Dox for 3 d, treated with 25 ng/mL IL-6 for the indicated time; lysate precipitated with streptavidin beads, Western blot
[4] = molecular target: SFB-Smad7 (MCF10A tet-on cells) (UniProt O15105); assay: condition: only without Dox (SFB-Smad7 not induced); co-IP; MCF10A-tet-on cells, SFB-Smad7 induced with or without 500 ng/mL Dox for 3 d, treated with 25 ng/mL IL-6 for the indicated time; lysate precipitated with streptavidin beads, Western blot

| Substance | binding (HA-PRMT5 [2]) | binding (GST-Smad7) | also measured |
| --- | --- | --- | --- |
| FLAG-Smad7 (from UniProt O15105 1-426) | binds | – | binding (HA-PRMT5 [1]): binds weakly |
| endogenous PRMT5 (MCF10A) (from UniProt O14744 1-637) (enzyme) | – | – | binding [3]: binds; binding [4]: no binding |
| Smad7 MH1 domain (aa 1-228) (from UniProt O15105 1-228) (domain or fragment) | no binding | – | – |

More lines, main results first:

| binding (HA-PRMT5 [2]) | binding (GST-Smad7) | Substance | also measured |
| --- | --- | --- | --- |
| – | binds | MYC-MEP50 (from UniProt Q9BQA1 1-342) | – |
| binds | – | Smad7-MH2 (aa 228-426) (from UniProt O15105 228-426) (domain or fragment) | – |
| – | binds | MYC-PRMT5 (from UniProt O14744 1-637) (enzyme) | – |
